Among the data in PubChem BioAssay (NCI) are TGI and GI50 values, retold here.

Where “and” joins values, the source holds several entries; their conditions need not be identical. Identical values can stand only once.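 Interpolation was linear, between the two tested concentrations surrounding the appropriate level; five concentrations were tested over 48 hours in 96-well plates. The concentration for 50% growth inhibition is given as GI50. At the TGI there is no net growth.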

The subject of this experiment is NCI-H322M lung. Kind of experiment: NCI tumour cell line growth inhibition, 48 h.

For the compound `C[C@]12C[C@H](O)[C@H]3[C@@H](CCC4=CC(=O)CC[C@@]43C)[C@@H]1CC[C@@H]2c1csc(-c2ccccc2)n1`, the TGI is greater than 100 µM.
Turning to `CCOC(=O)C1=C(C)NC(c2ccco2)=C(C#N)C1c1cccc([N+](=O)[O-])c1` (configuration not stated), the GI50 is 0.0287 µM.
Take `Cc1cccc2c1CC(Cc1ccccc1C(=O)O)C2=O` (configuration not stated): the TGI is greater than 100 µM.
Still for that read-out and setting: the result for `Nc1c2ccccc2nc2c(C(=O)Nc3ccc(S(N)(=O)=O)cc3)cccc12` reads greater than 100 µM.
`COc1c(N2CCN(CN3C(=O)C(=Nc4ccc(S(=O)(=O)Nc5ncccn5)cc4)c4cc(Cl)ccc43)C(C)C2)c(F)cc2c(=O)c(C(=O)O)cn(C3CC3)c12` (configuration not stated): the GI50 is 13.9 µM and the TGI is greater than 50 µM.
In turn, `CN(C)/N=N/c1nc2c(c(=O)n(C)c(=O)n2C)n1CC1CO1` (configuration not stated) registered a TGI of 57.3 µM.
On to `COc1ccc(-c2cc3cc(Cl)cc(Cl)c3oc2=O)cc1OC`, for which the TGI was greater than 100 µM.
Same read-out and setting: the value for `CCOC(=O)c1c(-c2ccccc2)c(OC)cn1C` was greater than 10 µM.
In the case of `CC[PH+](CC)CC.[Cl][Au]`, the GI50 is 15.4 µM and the TGI came to 28.8 µM.
On the same counts, the results for `Nc1cccc2c1C(=O)c1cccc(NC(=O)c3ccccc3)c1C2=O` are 1.52 µM and greater than 100 µM.
In the case of `CSc1nc(=O)c2nc(-c3cccs3)c(-c3cccs3)nc2n1C`, the TGI is greater than 100 µM.
On the same count and under the same terms, the result for `CCOC(=O)c1csc(NC(=O)CCN2CCCC2)n1` reads greater than 100 µM.
In the case of `CNC(=O)c1ccccc1Nc1nc(Nc2ccc3c(c2OC)CCC[C@H](N2CCN(CCO)CC2)C3)ncc1Cl`, the GI50 is 0.856 µM and 0.517 µM; the TGI is 9.86 µM and > 10 µM.
Regarding `COc1ccc2[nH]c(C(=O)OCc3ccc4c(Cl)cc(Cl)c(O)c4n3)cc2c1`, the GI50 was 1.78 µM and the TGI was 3.88 µM.
With `CCc1nc2c(c(N(C)C)c1C(=O)OC)CCc1ccccc1-2`, the TGI was greater than 100 µM.
Take `CN1C2=Nc3n(c4ccccc4[n+]3C)CN2c2ccccc21`: the TGI was greater than 100 µM.
`O=C(c1ccc([N+](=O)[O-])cc1)N1CCCC1`: the TGI is greater than 100 µM.
With `CCC1=C(CC2NCCc3ccccc32)CC2c3cc(OC)c(OC)cc3CCN2C1` (configuration not stated), the GI50 was 4.91 µM; the TGI is 33.7 µM and 3.46 µM.
Take `CS(=O)(=O)N(c1cc(-c2ccc3ncnc(Nc4ccc(F)c(Cl)c4)c3c2)cnc1Cl)S(C)(=O)=O`: the GI50 was 0.961 µM and the TGI was determined as 4.6 µM.
On to `CC(C)c1ccc(NC(=O)Cc2ccc(Nc3ncnc4cc(-c5cnn(CCN(C)C)c5)ccc34)cc2)cc1`, for which the GI50 is 1.82 µM and the TGI was determined as 5.06 µM.
In the case of `CCC(CO)Nc1nc2c(c(=O)n(C)c(=O)n2C)n1CCO` (configuration not stated), the TGI is greater than 100 µM.
On the same count and under the same terms, the result for `N#CCCN(CCC#N)c1ccc(C(N=Nc2ccccc2)=Nc2ccc(F)cc2)cc1` reads greater than 100 µM; that for `O=C1NC2C(O)CCCCC2C12CCCCC2` (configuration not stated), greater than 100 µM.
For `N#Cc1cc(S(=O)(=O)Nc2nc3ccccc3o2)c(SCc2ccccc2)cc1Cl`, the GI50 is 32.1 µM and the TGI was determined as 75.6 µM.
As to `O=C(NC(C(F)(F)F)(C(F)(F)F)P(=O)(Cc1ccccc1)Cc1ccccc1)C(C(F)(F)F)C(F)(F)F`, the TGI was 71.2 µM.
For the compound `O=C1CC[C@@]23CC(=O)O[C@@H]2CCCC3C1` (some centres not stated), the TGI was greater than 100 µM.
For the compound `COc1ccc2c(c1OC)C(=O)N1C2=Cc2c(cc3c(c2OC)OCO3)CC1N(C)C` (configuration not stated), the TGI is greater than 100 µM.
Still for that read-out and setting: the value for `CC[C@]12C=CCN3CCC4(c5cc([C@@]6(C(=O)OC)CC7CN(CCc8c6[nH]c6ccccc86)CC6CCCCC67)c(OC)cc5N(C)C4[C@](O)(C(=O)OC)C1OC(C)=O)[C@@H]32` (some centres not stated) was 4.97 µM; that for `C=C1C(=O)O[C@H]2C[C@@H]1C(=O)CC(C)CCCC(C)=CCC[C@@]2(C)O` (some centres not stated) was greater than 25 µM; that for `c1cncc(CSc2nc3ccccc3nc2-c2cccs2)c1` was greater than 100 µM.
Still for that read-out and setting: the value for `O=[N+]([O-])c1ccc(-c2csc(=[N+]3CCCCC3)s2)cc1` was greater than 100 µM.
`O=C1NC(c2ccccc2)C2(C(=O)O)CN(C3CC3)c3cc(N4CCNCC4)c(F)cc3C2N1` (configuration not stated): the GI50 is greater than 100 µM and the TGI was greater than 100 µM.
On to `O=C1N=C(Nc2nc(-c3csc(NC4=NC(=O)/C(=C\c5ccccc5)S4)n3)cs2)S/C1=C/c1ccccc1`, for which the GI50 was 6.97 µM and the TGI stood at 24.6 µM.
The compound `Clc1ccc(/C(=C/c2ccccc2)Cn2ccnc2)cc1` yielded a TGI greater than 100 µM.
The same measure, in the same setting: the value for `CN1c2ccccc2C2=C(c3ccccc3)CC[C@@H](C(=O)N3C4CC5CC[C@@]4(CS3(=O)=O)C5(C)C)[C@@H]21` (some centres not stated) was greater than 100 µM.
On the same count and under the same terms, the result for `CC1c2[nH]c3ccccc3c2CCN1O` (configuration not stated) reads greater than 100 µM.
The same measure, in the same setting: the result for `Cc1cn(S(=O)(=O)c2ccccc2)c2c(OCc3ccccc3)cc(NC(=O)c3cc4cc([N+](=O)[O-])ccc4s3)cc12` reads greater than 100 µM; that for `Cc1cc(S(=O)(=O)N=C2Nc3cccc4cccc(c34)N2)c(S)cc1Cl`, greater than 100 µM; that for `O=C(Nc1nn(C(=O)c2cccnc2)c(=O)s1)c1ccc(Cl)cc1`, greater than 100 µM.
With `COc1cc(CNc2oc(-c3ccccc3)c(-c3ccccc3)c2C#N)cc(CN2CCN(C)CC2)c1O`, the GI50 was 1.75 µM and the TGI was 3.15 µM.
For `CC[C@H](C)[C@H](NC(=O)c1cccn1C)C(=O)N(C)[C@H](C[C@@H](OC(C)=O)c1nc(C(=O)N[C@@H](Cc2ccccc2)C[C@H](C)C(=O)OC)cs1)C(C)C`, the GI50 was 0.243 µM and the TGI is greater than 33.3 µM.
Taken in the same sequence, the figures for `Cc1cc(O)c(-c2ccc([C@@H](C)CN(C)C)cc2)c2c1[nH]c(=O)c1sccc12` were 1.18 µM and 7.11 µM.
Taken in the same sequence, the figures for `CC1(C)CCC[C@]2(C)c3ccccc3C(=O)CC12` (some centres not stated) were 54 µM and greater than 100 µM.
Compound `O=c1c2cc3ccccc3n2c(=O)c2cc3ccccc3n12` registered a TGI greater than 100 µM.
Regarding `CCC1([N+](=O)[O-])CN(N=O)C1`, the TGI is greater than 100 µM.
In the case of `CCC1(CC)C(=O)N(C(=O)c2cc(OC)c(OC)c(OC)c2)N(C(=O)c2cc(OC)c(OC)c(OC)c2)C1=O`, the TGI is greater than 50 µM.
The same measure, in the same setting: the value for `O=C(C(=C(I)I)c1ccccc1)c1ccccc1` was 51.1 µM; that for `C[C@H]1C=C2C(=O)O[C@H]3CC[C@@H](C1)[C@@]23O` was 16.6 µM.
In the case of `N#Cc1cccc(C2C3=C(COC3=O)N(CCO)c3cc4c(cc32)OCO4)c1` (configuration not stated), the GI50 was 3.14 µM and the TGI was greater than 50 µM.
The compound `CC(=O)Oc1ccc2c(-c3ccccc3)c(Oc3ccc(Cl)cc3)c(=O)oc2c1` gave a TGI of 29.2 µM.
Take `CN1CCN(CCCOc2cc(O)c3c(=O)cc(-c4ccccc4)oc3c2)CC1`: the GI50 is 27.3 µM and the TGI was 96.4 µM.
`CC(=N/NC(=S)N(C)C)/C(=N\NC(=S)N(C)C)c1ccccc1` returned a TGI of 5.26 µM.
Still for that read-out and setting: the value for `COCCNc1cncc(C(N)=O)c1` was greater than 100 µM; that for `COc1ccc([C@]23CCC4(OCC(C)(C)CO4)[C@H]4CON(O[C@H](O[C@@H]5CCCCC5C(C)(C)c5ccccc5)C2)[C@@H]43)cc1OC` (some centres not stated) was greater than 100 µM; that for `COc1cc(N=Nc2ccc(OC)c(S(=O)(=O)O)c2)c(C)cc1N=Nc1ccc(/C=C/c2ccc(N=[N+]([O-])c3ccc(/C=C/c4ccc(N=Nc5cc(C)c(N=Nc6ccc(OC)c(S(=O)(=O)O)c6)cc5OC)cc4S(=O)(=O)O)c(S(=O)(=O)O)c3)cc2S(=O)(=O)O)c(S(=O)(=O)O)c1` was greater than 100 µM.
Same read-out and setting: the result for `NC(=O)NN=C1Cc2ccccc2C1` reads greater than 100 µM.
Take `C[CH2][Sn]([CH2]C)([O]C(=O)c1ccc(F)cc1)[O]C(=O)c1ccc(F)cc1`: the GI50 was 60.7 µM and the TGI is greater than 100 µM.
As for `CC(C)(C)N=NC(C)(C)N=C=O`, the TGI was greater than 100 µM.
On the same count and under the same terms, the result for `OC(CC(O)(C(F)(F)Cl)C(F)(F)Cl)c1ccccc1` (configuration not stated) reads greater than 10 µM.
